No constants are given. Whether binding was seen depends on the method and setting. Binding seen in cells or lysates may run through a third protein. Some results given as binding are weak or reduced against the parent protein; the word gives no strength. For part of these data: Where a sequence is shown, tags or fusion partners need not be part of it.
T1: Flag-tagged Mono-OGT (OGT-W198E, I201D) (human) (UniProt O15294)
T1 sequence: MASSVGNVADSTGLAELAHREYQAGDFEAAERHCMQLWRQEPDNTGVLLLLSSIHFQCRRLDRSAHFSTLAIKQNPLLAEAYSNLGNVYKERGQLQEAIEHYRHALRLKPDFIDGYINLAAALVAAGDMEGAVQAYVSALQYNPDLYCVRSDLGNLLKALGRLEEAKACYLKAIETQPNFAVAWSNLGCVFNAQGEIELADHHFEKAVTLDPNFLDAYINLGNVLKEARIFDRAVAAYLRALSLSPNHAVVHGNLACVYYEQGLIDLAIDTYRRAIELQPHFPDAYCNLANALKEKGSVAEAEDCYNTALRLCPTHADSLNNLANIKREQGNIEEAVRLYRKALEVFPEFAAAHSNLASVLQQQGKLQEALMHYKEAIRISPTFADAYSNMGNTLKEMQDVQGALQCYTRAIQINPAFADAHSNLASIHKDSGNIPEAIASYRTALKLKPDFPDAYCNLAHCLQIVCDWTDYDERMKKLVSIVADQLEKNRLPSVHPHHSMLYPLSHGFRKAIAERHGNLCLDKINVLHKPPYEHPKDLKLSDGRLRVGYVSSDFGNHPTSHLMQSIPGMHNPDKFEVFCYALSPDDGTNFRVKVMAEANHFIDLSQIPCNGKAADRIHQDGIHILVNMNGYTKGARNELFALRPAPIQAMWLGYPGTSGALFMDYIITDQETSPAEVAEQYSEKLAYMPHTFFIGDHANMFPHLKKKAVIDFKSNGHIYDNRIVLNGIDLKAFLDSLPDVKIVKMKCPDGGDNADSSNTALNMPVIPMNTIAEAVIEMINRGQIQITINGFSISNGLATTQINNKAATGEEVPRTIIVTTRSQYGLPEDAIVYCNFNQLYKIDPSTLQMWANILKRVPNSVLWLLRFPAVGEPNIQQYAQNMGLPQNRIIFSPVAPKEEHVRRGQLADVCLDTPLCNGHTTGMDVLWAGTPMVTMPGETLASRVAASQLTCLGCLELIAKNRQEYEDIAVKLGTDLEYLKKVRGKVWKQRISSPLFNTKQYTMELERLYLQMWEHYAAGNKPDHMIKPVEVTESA

Protein sequences, listed by entry. Tags and fused reporters are not part of them.
UniProt P52294: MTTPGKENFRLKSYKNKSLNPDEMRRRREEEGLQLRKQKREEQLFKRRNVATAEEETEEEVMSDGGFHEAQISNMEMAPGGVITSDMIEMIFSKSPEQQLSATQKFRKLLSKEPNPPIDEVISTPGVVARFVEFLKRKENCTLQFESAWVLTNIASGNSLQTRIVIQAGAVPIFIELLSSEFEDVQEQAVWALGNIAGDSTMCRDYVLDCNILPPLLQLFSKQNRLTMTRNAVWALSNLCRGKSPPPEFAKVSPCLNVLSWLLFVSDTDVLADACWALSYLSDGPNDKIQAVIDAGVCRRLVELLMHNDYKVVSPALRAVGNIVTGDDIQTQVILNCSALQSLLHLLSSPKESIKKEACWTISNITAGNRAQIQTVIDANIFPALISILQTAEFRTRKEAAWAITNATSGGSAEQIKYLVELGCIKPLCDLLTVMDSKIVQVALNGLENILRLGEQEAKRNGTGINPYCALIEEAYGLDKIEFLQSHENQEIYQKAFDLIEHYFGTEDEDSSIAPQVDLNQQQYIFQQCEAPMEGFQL
UniProt O00629: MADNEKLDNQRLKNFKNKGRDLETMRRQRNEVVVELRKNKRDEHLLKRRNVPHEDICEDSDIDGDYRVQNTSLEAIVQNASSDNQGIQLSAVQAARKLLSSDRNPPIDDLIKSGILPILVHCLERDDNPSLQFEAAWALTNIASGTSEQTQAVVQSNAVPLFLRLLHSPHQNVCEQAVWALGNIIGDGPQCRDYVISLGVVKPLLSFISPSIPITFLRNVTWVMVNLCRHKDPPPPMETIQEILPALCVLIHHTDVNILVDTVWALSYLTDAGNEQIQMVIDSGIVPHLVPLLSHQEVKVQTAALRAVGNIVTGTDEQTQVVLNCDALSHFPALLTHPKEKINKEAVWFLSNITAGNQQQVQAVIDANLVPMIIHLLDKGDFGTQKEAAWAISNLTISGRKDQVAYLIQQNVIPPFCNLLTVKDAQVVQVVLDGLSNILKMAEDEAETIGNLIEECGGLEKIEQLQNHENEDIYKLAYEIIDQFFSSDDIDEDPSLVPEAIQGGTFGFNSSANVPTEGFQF
UniProt O00505: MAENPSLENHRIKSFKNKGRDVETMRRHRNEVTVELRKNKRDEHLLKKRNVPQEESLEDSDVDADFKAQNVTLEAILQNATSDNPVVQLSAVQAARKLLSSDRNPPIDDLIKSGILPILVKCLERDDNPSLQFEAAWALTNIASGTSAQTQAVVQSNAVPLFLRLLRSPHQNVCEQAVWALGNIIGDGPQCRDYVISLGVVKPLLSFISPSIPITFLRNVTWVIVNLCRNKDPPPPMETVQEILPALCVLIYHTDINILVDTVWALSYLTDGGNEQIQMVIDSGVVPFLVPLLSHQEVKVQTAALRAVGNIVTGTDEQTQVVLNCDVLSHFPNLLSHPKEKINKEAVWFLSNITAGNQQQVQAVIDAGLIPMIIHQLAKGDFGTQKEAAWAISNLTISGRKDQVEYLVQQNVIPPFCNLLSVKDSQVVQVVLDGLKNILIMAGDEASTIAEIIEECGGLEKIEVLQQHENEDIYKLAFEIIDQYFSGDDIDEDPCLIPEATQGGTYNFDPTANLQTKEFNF
UniProt Q14974: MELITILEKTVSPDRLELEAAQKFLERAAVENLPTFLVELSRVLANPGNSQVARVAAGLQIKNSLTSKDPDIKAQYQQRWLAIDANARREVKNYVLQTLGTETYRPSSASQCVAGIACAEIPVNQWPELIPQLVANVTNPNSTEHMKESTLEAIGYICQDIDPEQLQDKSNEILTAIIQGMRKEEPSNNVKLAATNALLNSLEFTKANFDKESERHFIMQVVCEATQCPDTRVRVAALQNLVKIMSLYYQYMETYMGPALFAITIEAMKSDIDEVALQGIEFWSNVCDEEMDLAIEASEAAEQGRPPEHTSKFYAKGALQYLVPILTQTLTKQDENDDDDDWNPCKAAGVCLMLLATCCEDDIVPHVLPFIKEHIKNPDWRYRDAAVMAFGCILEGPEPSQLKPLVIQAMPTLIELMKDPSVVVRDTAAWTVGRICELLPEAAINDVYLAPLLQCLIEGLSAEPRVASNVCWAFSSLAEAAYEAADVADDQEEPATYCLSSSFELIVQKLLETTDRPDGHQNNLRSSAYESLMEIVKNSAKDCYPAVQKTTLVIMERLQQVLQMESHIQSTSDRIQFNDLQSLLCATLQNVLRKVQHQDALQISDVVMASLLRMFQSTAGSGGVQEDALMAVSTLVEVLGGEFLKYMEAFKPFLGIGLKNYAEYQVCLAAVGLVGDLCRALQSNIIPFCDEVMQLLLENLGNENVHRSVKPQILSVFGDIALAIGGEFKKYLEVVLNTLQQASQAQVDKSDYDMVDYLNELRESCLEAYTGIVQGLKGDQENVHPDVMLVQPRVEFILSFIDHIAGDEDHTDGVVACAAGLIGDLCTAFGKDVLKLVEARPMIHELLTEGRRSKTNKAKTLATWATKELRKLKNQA

T2: Flag-tagged WT-OGT (human O-GlcNAc transferase) (human) (UniProt O15294)
T2 sequence: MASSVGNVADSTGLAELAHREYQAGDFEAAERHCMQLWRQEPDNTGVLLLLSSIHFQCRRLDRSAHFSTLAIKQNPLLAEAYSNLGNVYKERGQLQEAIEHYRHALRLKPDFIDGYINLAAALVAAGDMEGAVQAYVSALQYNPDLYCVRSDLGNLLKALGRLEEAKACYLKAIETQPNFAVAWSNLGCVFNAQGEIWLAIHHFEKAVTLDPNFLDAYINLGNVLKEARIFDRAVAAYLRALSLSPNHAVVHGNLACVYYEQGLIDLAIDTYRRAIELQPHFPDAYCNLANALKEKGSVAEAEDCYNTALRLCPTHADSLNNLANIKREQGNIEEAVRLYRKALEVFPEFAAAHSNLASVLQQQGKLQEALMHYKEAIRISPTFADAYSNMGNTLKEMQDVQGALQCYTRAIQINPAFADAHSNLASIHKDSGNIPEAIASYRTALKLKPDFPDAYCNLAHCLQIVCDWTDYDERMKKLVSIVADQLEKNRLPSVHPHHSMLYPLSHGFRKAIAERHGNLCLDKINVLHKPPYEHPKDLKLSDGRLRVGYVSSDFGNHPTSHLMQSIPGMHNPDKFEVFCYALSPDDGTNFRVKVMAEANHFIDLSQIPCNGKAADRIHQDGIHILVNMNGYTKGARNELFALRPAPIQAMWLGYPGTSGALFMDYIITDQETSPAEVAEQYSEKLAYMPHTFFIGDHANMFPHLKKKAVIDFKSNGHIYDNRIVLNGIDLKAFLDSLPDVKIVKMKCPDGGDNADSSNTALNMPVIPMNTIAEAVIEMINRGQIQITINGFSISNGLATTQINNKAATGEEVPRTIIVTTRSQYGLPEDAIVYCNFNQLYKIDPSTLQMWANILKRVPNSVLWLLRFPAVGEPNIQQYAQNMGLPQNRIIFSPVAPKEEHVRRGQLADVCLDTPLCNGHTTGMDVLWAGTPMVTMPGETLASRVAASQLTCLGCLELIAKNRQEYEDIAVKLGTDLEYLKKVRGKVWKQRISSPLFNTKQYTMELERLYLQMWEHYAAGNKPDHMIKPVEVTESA


Columns and labels:
[1] = biological target: GST-importin α5 fusion protein (human) (UniProt P52294); test: pull-down; recombinant GST-importin α5 immobilised on Glutathione-Sepharose 4B (5 μg of beads) incubated with pre-cleared lysates of HeLa cells overexpressing Flag-tagged OGT constructs, 2 h at 4 °C; bound OGT detected with anti-Flag antibody; only the target purified
[2] = biological target: Myc-tagged importin α3 (human) (UniProt O00629); test: co-IP; HeLa cells co-transfected with Flag-tagged OGT constructs and Myc-tagged importin α or β; lysates immunoprecipitated with anti-Flag or with anti-Myc antibody, the partner detected by western blot; co-IP buffer 50 mM Tris-HCl pH 7.4, 150 mM NaCl, 0.5% NP-40, 4 °C; beads washed three times (stringently in Fig. 4a,b)
[3] = biological target: Myc-tagged importin α4 (human) (UniProt O00505); test: as above
[4] = biological target: Myc-tagged importin α5 (human) (UniProt P52294); test: as above
[5] = biological target: Myc-tagged importin α7 (human) (UniProt O60684); test: as above
[6] = biological target: Myc-tagged importin β (human) (UniProt Q14974); test: as above
[7] = biological target: T1, Flag-tagged Mono-OGT (OGT-W198E, I201D) (human); test: co-IP; Flag-tagged WT-OGT or Mono-OGT immunoprecipitated; endogenous OGT looked for (Supplementary Fig. 2)
[8] = biological target: T2, Flag-tagged WT-OGT (human O-GlcNAc transferase) (human); test: as above
[9] = biological target: Myc-tagged importin α5 (human) (UniProt P52294); test: co-IP; HeLa cells overexpressing Myc-tagged importin α5; immunoprecipitated with anti-Myc antibody; endogenous OGT detected with an anti-OGT antibody

Row | Binder | binding [1] | binding [2] | binding [3] | binding [4] | binding [5] | binding [6] | binding [7] | binding [8] | binding [9]
1 | Flag-tagged WT-OGT (human O-GlcNAc transferase) (enzyme, UniProt O15294-3 1-1036) MASSVGNVADSTGLAELAHREYQAGDFEAAERHCMQLWRQEPDNTGVLLLLSSIHFQCRRLDRSAHFSTLAIKQNPLLAEAYSNLGNVYKERGQLQEAIEHYRHALRLKPDFIDGYINLAAALVAAGDMEGAVQAYVSALQYNPDLYCVRSDLGNLLKALGRLEEAKACYLKAIETQPNFAVAWSNLGCVFNAQGEIWLAIHHFEKAVTLDPNFLDAYINLGNVLKEARIFDRAVAAYLRALSLSPNHAVVHGNLACVYYEQGLIDLAIDTYRRAIELQPHFPDAYCNLANALKEKGSVAEAEDCYNTALRLCPTHADSLNNLANIKREQGNIEEAVRLYRKALEVFPEFAAAHSNLASVLQQQGKLQEALMHYKEAIRISPTFADAYSNMGNTLKEMQDVQGALQCYTRAIQINPAFADAHSNLASIHKDSGNIPEAIASYRTALKLKPDFPDAYCNLAHCLQIVCDWTDYDERMKKLVSIVADQLEKNRLPSVHPHHSMLYPLSHGFRKAIAERHGNLCLDKINVLHKPPYEHPKDLKLSDGRLRVGYVSSDFGNHPTSHLMQSIPGMHNPDKFEVFCYALSPDDGTNFRVKVMAEANHFIDLSQIPCNGKAADRIHQDGIHILVNMNGYTKGARNELFALRPAPIQAMWLGYPGTSGALFMDYIITDQETSPAEVAEQYSEKLAYMPHTFFIGDHANMFPHLKKKAVIDFKSNGHIYDNRIVLNGIDLKAFLDSLPDVKIVKMKCPDGGDNADSSNTALNMPVIPMNTIAEAVIEMINRGQIQITINGFSISNGLATTQINNKAATGEEVPRTIIVTTRSQYGLPEDAIVYCNFNQLYKIDPSTLQMWANILKRVPNSVLWLLRFPAVGEPNIQQYAQNMGLPQNRIIFSPVAPKEEHVRRGQLADVCLDTPLCNGHTTGMDVLWAGTPMVTMPGETLASRVAASQLTCLGCLELIAKNRQEYEDIAVKLGTDLEYLKKVRGKVWKQRISSPLFNTKQYTMELERLYLQMWEHYAAGNKPDHMIKPVEVTESA | binds | no binding | no binding | binds | no binding | no binding | – | – | –
2 | endogenous OGT (enzyme, UniProt O15294 1-1046) MASSVGNVADSTEPTKRMLSFQGLAELAHREYQAGDFEAAERHCMQLWRQEPDNTGVLLLLSSIHFQCRRLDRSAHFSTLAIKQNPLLAEAYSNLGNVYKERGQLQEAIEHYRHALRLKPDFIDGYINLAAALVAAGDMEGAVQAYVSALQYNPDLYCVRSDLGNLLKALGRLEEAKACYLKAIETQPNFAVAWSNLGCVFNAQGEIWLAIHHFEKAVTLDPNFLDAYINLGNVLKEARIFDRAVAAYLRALSLSPNHAVVHGNLACVYYEQGLIDLAIDTYRRAIELQPHFPDAYCNLANALKEKGSVAEAEDCYNTALRLCPTHADSLNNLANIKREQGNIEEAVRLYRKALEVFPEFAAAHSNLASVLQQQGKLQEALMHYKEAIRISPTFADAYSNMGNTLKEMQDVQGALQCYTRAIQINPAFADAHSNLASIHKDSGNIPEAIASYRTALKLKPDFPDAYCNLAHCLQIVCDWTDYDERMKKLVSIVADQLEKNRLPSVHPHHSMLYPLSHGFRKAIAERHGNLCLDKINVLHKPPYEHPKDLKLSDGRLRVGYVSSDFGNHPTSHLMQSIPGMHNPDKFEVFCYALSPDDGTNFRVKVMAEANHFIDLSQIPCNGKAADRIHQDGIHILVNMNGYTKGARNELFALRPAPIQAMWLGYPGTSGALFMDYIITDQETSPAEVAEQYSEKLAYMPHTFFIGDHANMFPHLKKKAVIDFKSNGHIYDNRIVLNGIDLKAFLDSLPDVKIVKMKCPDGGDNADSSNTALNMPVIPMNTIAEAVIEMINRGQIQITINGFSISNGLATTQINNKAATGEEVPRTIIVTTRSQYGLPEDAIVYCNFNQLYKIDPSTLQMWANILKRVPNSVLWLLRFPAVGEPNIQQYAQNMGLPQNRIIFSPVAPKEEHVRRGQLADVCLDTPLCNGHTTGMDVLWAGTPMVTMPGETLASRVAASQLTCLGCLELIAKNRQEYEDIAVKLGTDLEYLKKVRGKVWKQRISSPLFNTKQYTMELERLYLQMWEHYAAGNKPDHMIKPVEVTESA | – | – | – | – | – | – | binds weakly | binds | binds

From article PMC5054401
